The record followed here is the supplement of paper PMC11417369.

± gives the standard deviation of the averaged measurements. Some of the results follow.

The test has as its system PfAP2-I AP2 domain 3 (GST-tagged). Nature of the test: gcPBM binding intensity (ln(normalized median fluorescence intensity)); higher = stronger DNA binding. The procedure, abridged:
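Probes on an Agilent 4 × 180k array were primer-extended, double-stranded and 36 bp long, taken from intergenic genomic regions, with negative controls added. GST-tagged P. falciparum DNA-binding domains from E. coli, about 25 μg on average, were applied to the array for 1 h in 1× PBS containing 1% milk, 0.2 mg/ml BSA, 0.5% salmon testes DNA and 0.03% Triton X-100. Binding intensity, obtained after Alexa488 anti-GST antibody detection and a 488 nm scan, is the highest Masliner-normalised natural-log median intensity across replicate spots of either probe orientation.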
As to “AATGTATTCTCTCATGCACACTTTCTTTAAGGGACC [CACACA_site5245]”, the “gcPBM binding intensity (ln)” value stood at 8.54 ± 0.52.

“ATATCTTATATCTTCACACATACACAATAAATACAT [CACACA_site5028]”: the “gcPBM binding intensity (ln)” value worked out at 8.22 ± 0.59.

As for “CTAAGAAGTATTTACACACCAACAAGGCGAAAAAAA [CACACA_site2945]”, the “gcPBM binding intensity (ln)” value stood at 7.97 ± 0.69.

On to “ACTTTTATTATTTATATACACACTTGCTGAAATGTT [CACACA_site3637]”, for which the “gcPBM binding intensity (ln)” value came to 8.29 ± 0.92.

For the sequence “AGTTATAAAATATTTGCATGTAAATATATTATCTAT [TGCATGCA_site1015]”, the “gcPBM binding intensity (ln)” value came out at 7.67 ± 0.53.

Take “TTTTTTTTTTTTAGAGTACACACTTTTTTACATTTA [CACACA_site3836]”: the “gcPBM binding intensity (ln)” value came out at 8.24 ± 0.64.

Consider “GTTGAAAATACAGAACGTACACGTTTGCCATATTGT [XGTACX_site2254]”, for which the “gcPBM binding intensity (ln)” value is 7.84 ± 0.54.

Take “TATGAAATGCTCCAATCACACATGAATGTAATATAT [CACACA_site5458]”: the “gcPBM binding intensity (ln)” value is 7.49 ± 0.48.

Regarding “ATATGATTTATAAAGTGTACCTTATTATAAGAAACA [XGTACX_site7914]”, the “gcPBM binding intensity (ln)” value was 7.86 ± 0.38.

In the case of “AAGATGAACCTTTACACATGCAACAAAAAATATACA [TGCATGCA_site166]”, the “gcPBM binding intensity (ln)” value was 7.83 ± 0.56.

For the sequence “ATCAACATTATGTTTAGTACTTAGTGAATTGTTAAT [XGTACX_site4913]”, the “gcPBM binding intensity (ln)” value worked out at 7.7 ± 0.5.

“ATATATATATATATATGTACATATTTACATTTTGTA [XGTACX_site3529]”: the “gcPBM binding intensity (ln)” value stood at 9.37 ± 0.28.

With “TATACACATTCGCGTTGTACAAAAAAAAAAAAAAAG [XGTACX_site2880]”, the “gcPBM binding intensity (ln)” value was determined as 7.99 ± 0.22.

Regarding “AATAAAGGAGCCTATGAACACACACCGGTACATATA [CACACA_site9352]”, the “gcPBM binding intensity (ln)” value turned out to be 7.56 ± 0.61.

As for “ATAAAAAAAAGAAAAACACACACATATATATATATA [CACACA_site8243]”, the “gcPBM binding intensity (ln)” value was determined as 9.39 ± 0.31.

For the sequence “ATAATAATAGTAATATGTACATATATATATATATAT [XGTACX_site7437]”, the “gcPBM binding intensity (ln)” value came to 9.29 ± 0.3.

“ATTTTTATTTTATATACACACAATAATACTAGAATA [CACACA_site7810]”: the “gcPBM binding intensity (ln)” value is 7.82 ± 0.49.

Take “ATTTCATATGGTCAACGTACTCATGCATCCCTCCTT [XGTACX_site437]”: the “gcPBM binding intensity (ln)” value was determined as 8.18 ± 0.98.

On to “AGATATATAAAATATACACACAGTAATATTTATATA [CACACA_site6767]”, for which the “gcPBM binding intensity (ln)” value turned out to be 7.3 ± 0.36.

As to “ATATATATCTACATATGTACATATATACATTACACA [XGTACX_site7210]”, the “gcPBM binding intensity (ln)” value is 7.9 ± 0.42.

For “TCAAAAAAGACACACCGTACATACTATTTGGACAGG [XGTACX_site7699]”, the “gcPBM binding intensity (ln)” value turned out to be 7.8 ± 0.64.

For “AATTATATTTGAAATACACACATAAAAACCATATAG [CACACA_site7598]”, the “gcPBM binding intensity (ln)” value was found to be 7.92 ± 0.61.

Turning to “TTCTAAATTAATAATACACACTTGCTAAAATCATTA [CACACA_site5733]”, the “gcPBM binding intensity (ln)” value turned out to be 7.73 ± 0.38.

Consider “TTTATTTTATCATTTGCACACGCACCCCCACATAAA [CACACA_site8007]”, for which the “gcPBM binding intensity (ln)” value stood at 10.4 ± 0.26.

Regarding “ATTCTCCATGTTTGATGTACTCATATGACGACGGAG [XGTACX_site4923]”, the “gcPBM binding intensity (ln)” value is 8.08 ± 0.23.

Consider “TTCTTATATTGTACAGTACACACCTTTATAATGTTA [CACACA_site7953]”, for which the “gcPBM binding intensity (ln)” value came to 8.54 ± 0.49.

Regarding “ATATAAATAACGTGTACACACATATGTATTTATATA [CACACA_site6520]”, the “gcPBM binding intensity (ln)” value is 8.43 ± 0.56.

Turning to “AATATTTCTATATGAACATGCAATGTATCTTTTTAT [TGCATGCA_site738]”, the “gcPBM binding intensity (ln)” value was 7.46 ± 0.56.

With “TTTTTATGATTATACTTATATAATTTCATGATTGAA [CACACA_negctrl_site228]”, the “gcPBM binding intensity (ln)” value was 7.41 ± 0.54.

As to “AATACTTACCAAAATACACACACACCCAAAATATAT [CACACA_site8559]”, the “gcPBM binding intensity (ln)” value was found to be 8.24 ± 0.44.

In the case of “ATTCCACTGTTTTAGTGTACTGGTCGTTTTTTTTTT [XGTACX_site1738]”, the “gcPBM binding intensity (ln)” value came out at 7.95 ± 0.42.

Regarding “AATTTTTTATACACAAGTACAAACGCGTAGTCACTT [XGTACX_site2458]”, the “gcPBM binding intensity (ln)” value turned out to be 7.92 ± 0.57.

Consider “ATTAAGTCTTATATTACACACGACATTGTAATGTAA [CACACA_site528]”, for which the “gcPBM binding intensity (ln)” value was 7.56 ± 0.55.

Take “TCCAAAATATCCTTCACACACGAACAGTTTCATTTA [CACACA_site5511]”: the “gcPBM binding intensity (ln)” value amounted to 7.79 ± 0.62.

Regarding “AAAAATAAAACAATTACACACATAATTTTATTTTTA [CACACA_site928]”, the “gcPBM binding intensity (ln)” value was found to be 7.56 ± 0.55.

Turning to “TTTATATTAATTTGTGTAAATGCATATGATGAGCAT [XGTACX_negctrl_site254]”, the “gcPBM binding intensity (ln)” value came to 7.88 ± 0.42.

For “ATATATATATATATATGTACATATAATTTTTTTTTT [XGTACX_site6948]”, the “gcPBM binding intensity (ln)” value amounted to 9.325 ± 0.021.

As for TAAATTTTTTTTTTGATGCACTTAGTTATTATATTT, the “gcPBM binding intensity (ln)” value was found to be 9.535 ± 0.021.

For “ATAACAATTATTTATCTACACACTTTTATGTTATTT [CACACA_site7886]”, the “gcPBM binding intensity (ln)” value is 8.12 ± 0.81.

As to “AATGGCAAAATAGGCACACACACATATACAGATATA [CACACA_site4726]”, the “gcPBM binding intensity (ln)” value worked out at 8.04 ± 0.49.

As for “ATAATAAAATAAATCACACATAATATAATGTAATAT [CACACA_site6144]”, the “gcPBM binding intensity (ln)” value came out at 7.54 ± 0.54.

For the sequence “ACAAAAAAATAAAATATATATATATATATAATATAT [CACACA_negctrl_site805]”, the “gcPBM binding intensity (ln)” value is 8.12 ± 0.3.

As for “GAATTTTTGACGATATAGGAAATAATTATCCTGAAG [XGTACX_negctrl_site61]”, the “gcPBM binding intensity (ln)” value stood at 7.46 ± 0.82.

In the case of “CTGTTAATTATATATTGTACAAAAGATATGATTATA [XGTACX_site6927]”, the “gcPBM binding intensity (ln)” value was found to be 7.71 ± 0.39.
